Experimental data taken from PubChem BioAssay AID624296 (National Center for Advancing Translational Sciences (NCATS), 2012).
In all, about 350,000 compounds went through this assay and about 9,900 (2.8%) were called active. Inconclusive means that the source gave no clear call. Such entries were picked first, then a sample of the others. Calls come from the whole dose curve; as a rule, active = well fitted activation curve with a large enough effect; inconclusive = small, poorly fitted or top-dose-only effect; inactive = no such curve, though single readings can be large or run the other way. Potencies of inconclusive entries are left out as doubtful fits.

Assay: A quantitative high throughput screen for small molecules that induce DNA re-replication in MCF 10a normal breast cells. Note: nearly all actives have a fitted effect of over 50% in size.
Conditions: MCF 10A DNA re-replication, Hoechst nuclear intensity, 48 h; series mostly up to 46.1 µM
Potency is the fitted concentration of half-maximal effect; tags give direction and shape of the fitted curve.

SMILES	Potency
O=C(C1=C[C@@H]2[C@H]3C(=O)N(c4ccccc4Cl)C(=O)[C@H]3[C@@H](C(=O)c3ccc(Cl)cc3)N2C=C1)c1ccccc1	inconclusive [activator, single point]
CC(=O)N1CCN(c2nc(CC(C)C)c3c(c2C#N)CCC3)CC1	inactive
O=C(/C=C/c1ccc(O)c(O)c1)NC(=O)c1ccccc1O	inconclusive [activator, full curve, poor fit]
CC(C)(C)OC(=O)NCCCCCNC(=O)c1nc[nH]c1C(=O)NCC(=O)OCc1ccccc1	inconclusive [activator, partial curve, poor fit]
Cc1cccc(NC2=C(NCCO)C(=O)c3ccccc3C2=O)c1	inconclusive [activator, single point]
Cc1cc(NC(=O)c2ccc(F)cc2)n(-c2ccccn2)n1	inactive
CCOC(=O)c1ccc(NS(=O)(=O)c2ccc3c(c2)n(C)c(=O)n3C)cc1	inconclusive [activator, single point]
CCN(CC)c1ccc(S(=O)(=O)N2CCOCC2)cc1NC(=O)Nc1ccccc1	inconclusive [activator, partial curve, poor fit]
Cc1occc1-c1nnc(SCC(=O)Nc2nc3ccccc3s2)o1	inconclusive [activator, single point]
COc1cc2c(cc1OC)C1(CCCC1)C(N)=C2C#N	inconclusive [activator, partial curve, poor fit]
COc1cccc2c1OCC/C2=N\NC(=O)C(C)Oc1ccc([N+](=O)[O-])cc1 (stereo not given)	inconclusive [activator, single point]
O=C(O)c1nn(CC(=O)N2CCN(c3ncc(C(F)(F)F)cc3Cl)CC2)c(=O)c2ccccc12	inactive
CCCOc1ccc(CN(C(=O)c2cccc(OC)c2)C2CCS(=O)(=O)C2)cc1 (stereo not given)	inactive
O=C(Nc1nc(-c2ccccc2)cs1)C1COc2ccccc2O1 (stereo not given)	inactive
COc1ccc(-c2cc(C(=O)Nc3c(C)nn(Cc4ccc(Cl)cc4)c3C)no2)cc1	active: 16.4 µM
COc1ccc(S(=O)(=O)NCC2CCC(C(=O)NCc3cccnc3)CC2)cc1 (stereo not given)	inconclusive [activator, full curve, poor fit]
CCCCNc1c(-c2cccc(-c3ccc(OC)cc3)c2)nc2cc(C)ccn12	active: 23.1 µM
Cc1ccccc1NC(=O)c1nc(S(C)(=O)=O)ncc1Cl	inconclusive [activator, single point]
COc1ccc(C2=NN(C(=O)CCC(=O)O)C(c3ccccc3F)C2)cc1 (stereo not given)	inactive
CN(C(=O)c1ccc(NC(=O)Cc2cccc(NC(=O)C3CCCN(C(=O)C4CC4)C3)c2)cc1)C1CC1 (stereo not given)	inconclusive [activator, full curve, poor fit]
CCc1nc(NC2CCCCC2)c(C#N)c2c1COC(C)(C)C2	inconclusive [activator, single point]
O=C(c1ccccc1)c1ccc(OCC(O)CNCc2ccc(Cl)cc2)cc1 (stereo not given)	inconclusive [activator, single point]
NC(=S)N/N=C/c1ccc(-c2cccc([N+](=O)[O-])c2)o1	inconclusive [activator, partial curve, poor fit]
Fc1ccc(NC(=S)Nc2ccc(Br)cc2)cc1	inactive

SMILES	Potency
Cc1ccc(S(=O)(=O)NCCCN2CCOCC2)cc1C	inconclusive [activator, single point]
COc1ccc(S(=O)(=O)N2CCCCC2)cc1NC(=O)Cc1ccc(Br)cc1	inactive
C[C@H](NC(=O)c1nc[nH]c1C(=O)N[C@H](C)c1ccccc1)C(=O)OCc1ccccc1	inconclusive [activator, partial curve, poor fit]
CC1C(C)N(C(=O)CCl)c2ccccc2N1C(=O)CCl (stereo not given)	active: 7.31 µM
c1ccc(OCCCn2nnc(-c3cccnc3)n2)cc1	inconclusive [activator, single point]
Cc1nn(-c2ccccc2)c(C)c1C(=O)OCC(=O)c1c(N)n(CC(C)C)c(=O)n(C)c1=O	inactive
CN(Cc1ccccc1NS(=O)(=O)c1ccc2ccccc2c1)C1CCCCC1	inconclusive [activator, partial curve, poor fit]
Cc1c(C(=O)N2CCN(CC(=O)Nc3ccccc3Cl)CC2)oc2ccc(Br)cc12	active: 23.1 µM
CCn1cnc2sc(C(=O)N(Cc3ccc(N(C)C)cc3)Cc3ccco3)c(C)c2c1=O	inconclusive [activator, partial curve, poor fit]
Cc1cc(C)c(OCC(=O)Nc2nc3ccccc3[nH]2)c(C)c1	active: 0.82 µM
COc1ccc(N(CC(=O)N2CCc3ccccc32)S(=O)(=O)c2c(C)noc2C)cc1	inconclusive [activator, full curve, poor fit]
COc1ccc(-c2noc(Cc3ccc(Cl)cc3)n2)cc1OC	inactive
O=C(Nc1c2c(nn1-c1cccc(Cl)c1)CS(=O)(=O)C2)c1ccc2c(c1)OCO2	inactive
COCCn1c(SCC(=O)Nc2ccc(C)cc2)nc2c(oc3ccccc32)c1=O	inconclusive [activator, single point]
Fc1ccccc1-c1ccc(/C=N/Nc2nc3ccccc3[nH]2)o1	active: 18.4 µM
O=C(Nc1ccccc1N1CCN(c2ccc(F)cc2)CC1)c1ccccc1	inconclusive [activator, single point]
O=C(Oc1ccc2ccc(=O)oc2c1)c1ccccc1	inconclusive [activator, single point]
CC(=O)Nc1ccc(C2=NNC(=Nc3cccc(S(=O)(=O)N(C)C)c3)SC2)cc1	inconclusive [activator, single point]
Cc1nc(SC2CC(=O)N(c3ccccc3)C2=O)n[nH]1 (stereo not given)	inconclusive [activator, single point]
COc1cccc(NC(=O)COC(=O)Cn2c(C)csc2=O)c1	inactive
COC(=O)c1c(C)[nH]c(C(=O)CN2C(=O)NC3(CCOc4ccccc43)C2=O)c1C (stereo not given)	inactive
CC(C)(C)NC(=O)CSCc1ccc(Br)cc1	inactive
CCOc1ccc(S(=O)(=O)Nc2ccn(C)n2)cc1	inactive
O=C(COc1ccc2c3c(c(=O)oc2c1)CCC3)NCc1ccccn1	inactive

SMILES	Potency
O=C(O)c1ccc(OCc2occc2C(=O)O)cc1	inactive
Cc1cccc(/C(N)=N/OC(=O)N2CCOCC2)c1	inconclusive [activator, single point]
CC(C)OC(=O)CSc1nc(N)c(C#N)c(-c2cccs2)c1C#N	inconclusive [activator, partial curve]
Cc1ccc(-c2sc(-c3ccccc3)nc2CC(=O)Nc2ccccc2F)cc1	inconclusive [activator, single point]
Cc1ccccc1CS(=O)(=O)c1nnc([C@H](CC(C)C)NC(=O)OC(C)(C)C)o1	inactive
COc1cccc(CCN2C(=O)C(=O)N([C@@H](CNCc3ccccc3)Cc3ccccc3F)C[C@@H]2C(C)(C)C)c1	inactive
CCC[C@@H](CN1CCC[C@H]1CN1C(N)=NC[C@H]1C(C)C)N1C[C@@H](Cc2ccccc2)N(CCCC2CCCC2)C1=N	inconclusive [activator, single point]
N#Cc1c(N)nc2c(c1-c1ccc(F)cc1)CCC2	active: 13 µM
COc1ccc(/C=N/n2cnc3c([nH]c4ccc(F)cc43)c2=O)cc1CN1CCCC1	inconclusive [activator, single point]
O=C1CCCCC1	inactive
O=C1Nc2ccccc2N(O)N1c1cc(-c2ccc(Cl)cc2)[nH]n1	inactive
COc1cc(C2C(C#N)=C(N)OC3=C2C(=O)CCC3)ccc1OC(=O)N1CCOCC1 (stereo not given)	inconclusive [activator, partial curve]
Cc1ccc(NC(=O)Nc2ccnc(-c3cccnc3)n2)cc1	inconclusive [activator, full curve, poor fit]
Cn1cc([N+](=O)[O-])c(C(=O)Nc2cc(Oc3ccccc3)cc([N+](=O)[O-])c2)n1	active: 2.91 µM
CCc1ccccc1N(CC(=O)NCCc1ccccc1)C(=O)CCC(=O)Nc1ccccn1	inactive
O=C(NCCN1C(=O)S/C(=C\c2ccccc2F)C1=O)C1CCN(S(=O)(=O)c2cccs2)CC1	inconclusive [activator, partial curve, poor fit]
O=C(Nc1ccc(N2CCCC2)c(Cl)c1)c1cccc(-c2cc3ccccc3oc2=O)c1	inconclusive [activator, full curve, poor fit]
CS(=O)(=O)c1ccc(Cl)c(NC(=O)COC(=O)CNC(=O)c2ccc3ccccc3c2)c1	inactive
COc1ccc(OCc2cc(C(=O)N3CCN(C4CCCC4)CC3)no2)c(Cl)c1	inconclusive [activator, single point]
Cc1nc([N+](=O)[O-])c(Br)n1Cc1ccc(Cl)c(Cl)c1	active: 20.6 µM
Cc1nn(-c2ccccc2)c(N2CCCC2)c1/C=N/n1cnc2scc(-c3ccccc3)c2c1=O	inconclusive [activator, full curve, poor fit]
Cc1ccc(S(=O)(=O)N2CCN(c3ncnc4sccc34)CC2)cc1C	inconclusive [activator, single point]
